Measured values published in the supplement of paper PMC7125110.
± gives the standard error. This sample is rich in variants without activity.

B1: glmS ribozyme (parent)
chain: AUAAAAGCGCCAGAACUACAGAAAUGUAGUUGACGAGGAGGAGGUUUAUCGAAUUUUCGGCGGAUGCCUCCAAA

Assays:
Settings in all cases: with glucosamine-6-phosphate
glucosamine-6-phosphate [1] = variants of: B1; experiment: self-cleavage kobs at 40 uM GlcN6P; higher = faster cleavage; RNA array
Method in brief: (§1)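 Barcoded ribozyme variants were transcribed in situ on sequenced MiSeq chips by E. coli RNA polymerase. At 37 °C, a hybridised Cy3 probe tracked them while glucosamine-6-phosphate (40 μM to 10 mM) in HEPES/KCl/Mg(OAc)2 buffer flowed in and tiles were imaged over ~14 h. Per-tile medians of signals normalised to baseline and to non-cleaving reference variants were fit to one- or two-exponential decays, giving kobs. kcat and KM came from weighted Michaelis–Menten fits across concentrations.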

glucosamine-6-phosphate [2] = variants of: B1; experiment: self-cleavage kobs at 2500 uM GlcN6P; higher = faster cleavage; RNA array
Method in brief: as §1

glucosamine-6-phosphate [3] = variants of: B1; experiment: self-cleavage kobs at 10000 uM GlcN6P; higher = faster cleavage; RNA array
Method in brief: as §1

glucosamine-6-phosphate [4] = variants of: B1; experiment: self-cleavage kobs at 640 uM GlcN6P; higher = faster cleavage; RNA array
Method in brief: as §1

glucosamine-6-phosphate [5] = variants of: B1; experiment: self-cleavage kobs at 160 uM GlcN6P; higher = faster cleavage; RNA array
Method in brief: as §1

Variant | self-cleavage kobs at 40 uM GlcN6P (glucosamine-6-phosphate [1]) [s⁻¹] | self-cleavage kobs at 2500 uM GlcN6P (glucosamine-6-phosphate [2]) [s⁻¹] | self-cleavage kobs at 10000 uM GlcN6P (glucosamine-6-phosphate [3]) [s⁻¹] | self-cleavage kobs at 640 uM GlcN6P (glucosamine-6-phosphate [4]) [s⁻¹] | self-cleavage kobs at 160 uM GlcN6P (glucosamine-6-phosphate [5]) [s⁻¹]
A52U G62C | < 1e-05 | < 1e-05 | < 1e-05 |  | 
A52U G62A | < 1e-05 |  |  |  | 
C50U C61G G63U | < 1e-05 |  |  |  | 
A53U A64G | 0.000491 ± 6.1e-05 | 0.0138 ± 0.0041 |  | 0.00551 ± 0.0013 | 0.00148 ± 0.00041
U49C G60C U69C | < 1e-05 |  | < 1e-05 |  | 
U54G U65G C67G | 3.01e-05 ± 1.5e-05 |  | 0.00213 ± 0.00029 |  | 
U49C G51U | < 1e-05 | < 1e-05 | < 1e-05 |  | 
A48C C58A | < 1e-05 |  |  | < 1e-05 | < 1e-05
U49A C58G | < 1e-05 |  | < 1e-05 |  | 
A53C G59U C68G | < 1e-05 |  |  |  | 
G51C G60U | < 1e-05 |  | < 1e-05 | < 1e-05 | < 1e-05
U49C U65G | < 1e-05 | < 1e-05 | < 1e-05 |  | 
C50A U55A | < 1e-05 |  |  | < 1e-05 | 
C50G C71U | 6.9e-05 ± 9.9e-06 |  |  | 0.000194 ± 2.7e-05 | 0.000107 ± 1e-05
A48C U49G G62A | < 1e-05 |  |  |  | 
U49A A53G | < 1e-05 |  |  |  | 
U54C A64G | 0.000616 ± 8.4e-05 | 0.0287 ± 0.0082 | 0.0123 ± 0.0031 | 0.00883 ± 0.0018 | 0.00156 ± 0.00033
A52G C71U | 2.74e-05 ± 6e-06 | 0.00078 ± 0.00015 | 0.00138 ± 0.00012 | 0.000293 ± 2.7e-05 | 7.83e-05 ± 8.6e-06
A52U U55A G62C U69C | < 1e-05 |  | < 1e-05 |  | 
U47G G60A | < 1e-05 | < 1e-05 |  |  | 
U47G G60C | < 1e-05 |  | < 1e-05 |  | < 1e-05
U54A U65A | 0.000105 ± 2.7e-05 | 0.00254 ± 0.00097 | 0.00595 ± 0.00078 | 0.00105 ± 0.00019 | 
A53U G62U C70U | < 1e-05 |  |  |  | 
U49G G66U | < 1e-05 |  |  | < 1e-05 | < 1e-05
A52U G59A | < 1e-05 |  |  | < 1e-05 | < 1e-05

Variant | self-cleavage kobs at 40 uM GlcN6P (glucosamine-6-phosphate [1]) [s⁻¹] | self-cleavage kobs at 2500 uM GlcN6P (glucosamine-6-phosphate [2]) [s⁻¹] | self-cleavage kobs at 10000 uM GlcN6P (glucosamine-6-phosphate [3]) [s⁻¹] | self-cleavage kobs at 640 uM GlcN6P (glucosamine-6-phosphate [4]) [s⁻¹] | self-cleavage kobs at 160 uM GlcN6P (glucosamine-6-phosphate [5]) [s⁻¹]
A53C C61G | < 1e-05 |  | < 1e-05 | < 1e-05 | 
G51A C67G | < 1e-05 |  | < 1e-05 |  | 
G51A C67U | < 1e-05 |  |  |  | 
A52U C71G | < 1e-05 | 5.28e-05 ± 9.2e-06 | 8.19e-05 ± 1e-05 | 3.14e-05 ± 1.3e-05 | 
A48G G63C | < 1e-05 | < 1e-05 | < 1e-05 |  | < 1e-05
A48C C67G | < 1e-05 |  |  |  | < 1e-05
A53U U54G C71A | 9.49e-05 ± 2.8e-05 |  | 0.00478 ± 0.0013 |  | 
U49G G59U | < 1e-05 | < 1e-05 | < 1e-05 |  | < 1e-05
U49A A64C | < 1e-05 | < 1e-05 | < 1e-05 |  | 
G51C G59A C61A C70U | < 1e-05 |  |  | < 1e-05 | 
G51A U65C | < 1e-05 |  | < 1e-05 |  | 
A48C A52U C70A | < 1e-05 |  |  |  | 
A48C A52U C70U | < 1e-05 |  | < 1e-05 |  | 
A53G G60U C71A | < 1e-05 |  |  |  | 
A48U G59U | < 1e-05 |  | < 1e-05 | < 1e-05 | < 1e-05
A48U G59A | < 1e-05 | < 1e-05 | < 1e-05 | < 1e-05 | < 1e-05
A48C U49A C50A U65A C67G | < 1e-05 |  |  |  | 
A53U G66A | 0.000372 ± 5.2e-05 | 0.00666 ± 0.0024 | 0.0144 ± 0.0026 | 0.00327 ± 0.00068 | 0.000827 ± 0.00015
A48U C50U C58A | < 1e-05 |  |  | < 1e-05 | < 1e-05
C50A U57G | < 1e-05 |  | < 1e-05 |  | 
U47G A64G C70G | < 1e-05 |  |  |  | 
A48G G62A | < 1e-05 |  |  | < 1e-05 | < 1e-05
U49A U55G | < 1e-05 |  |  |  | 
U49A U55C | < 1e-05 |  |  |  | < 1e-05
U55A U56G | 0.000292 ± 4.8e-05 | 0.00771 ± 0.0013 | 0.0097 ± 0.0019 | 0.00368 ± 0.00046 | 0.000454 ± 8.8e-05

Variant | self-cleavage kobs at 40 uM GlcN6P (glucosamine-6-phosphate [1]) [s⁻¹] | self-cleavage kobs at 2500 uM GlcN6P (glucosamine-6-phosphate [2]) [s⁻¹] | self-cleavage kobs at 10000 uM GlcN6P (glucosamine-6-phosphate [3]) [s⁻¹] | self-cleavage kobs at 640 uM GlcN6P (glucosamine-6-phosphate [4]) [s⁻¹] | self-cleavage kobs at 160 uM GlcN6P (glucosamine-6-phosphate [5]) [s⁻¹]
A48C A64G | < 1e-05 |  | 6.31e-05 ± 1.3e-05 |  | < 1e-05
A53U U55G A64C | < 1e-05 |  |  |  | 
A48C C61U | < 1e-05 | < 1e-05 | < 1e-05 | < 1e-05 | < 1e-05
A53G G60A | < 1e-05 | 3.68e-05 ± 1e-05 | 1.88e-05 ± 8.7e-06 |  | 
U54G U69G | 3.86e-05 ± 1.3e-05 |  |  |  | 8.46e-05 ± 2.2e-05
A48U C61U C71U | < 1e-05 |  | < 1e-05 |  | 
G51C G62C | < 1e-05 | < 1e-05 | < 1e-05 | < 1e-05 | < 1e-05
G51C U56C A64G C68U | < 1e-05 |  |  |  | 
C50G G63A C68A U69C | 0.000106 ± 2.3e-05 |  | 0.000147 ± 2.8e-05 |  | 
A52C G60A G66A | < 1e-05 |  |  | < 1e-05 | < 1e-05
U49G A52G U65A C68A | < 1e-05 |  |  |  | 
U54A G62C | < 1e-05 | < 1e-05 | < 1e-05 | < 1e-05 | < 1e-05
U47G G62C C68U C71U | < 1e-05 |  |  |  | 
A52C G66U | < 1e-05 |  | < 1e-05 |  | < 1e-05
U55A G60U C67G | < 1e-05 | < 1e-05 |  | < 1e-05 | 
U55G | 0.000889 ± 2.1e-05 | 0.0271 ± 0.0015 | 0.0436 ± 0.0021 | 0.0103 ± 0.00037 | 0.00312 ± 0.00021
U55A | 0.00134 ± 4.9e-05 |  |  |  | 
A53G G66U C67A | 7.95e-05 ± 1.9e-05 |  | 0.00186 ± 0.00059 |  | 
C50U U65A | < 1e-05 |  |  | < 1e-05 | < 1e-05
C50U U65G | < 1e-05 |  |  |  | 
A52C A53U | < 1e-05 |  |  | < 1e-05 | < 1e-05
C50G G59C C67G | 0.00018 ± 5.4e-05 |  |  |  | 
U49G A53U U56A C67A C70A | 4.31e-05 ± 1.9e-05 |  |  |  | 
C50U U56C | < 1e-05 |  |  |  | < 1e-05
U54C U65G | 5.43e-05 ± 8.6e-06 |  |  |  | 

Variant | self-cleavage kobs at 40 uM GlcN6P (glucosamine-6-phosphate [1]) [s⁻¹] | self-cleavage kobs at 2500 uM GlcN6P (glucosamine-6-phosphate [2]) [s⁻¹] | self-cleavage kobs at 10000 uM GlcN6P (glucosamine-6-phosphate [3]) [s⁻¹] | self-cleavage kobs at 640 uM GlcN6P (glucosamine-6-phosphate [4]) [s⁻¹] | self-cleavage kobs at 160 uM GlcN6P (glucosamine-6-phosphate [5]) [s⁻¹]
A52U G59U U69A | < 1e-05 |  |  |  | 
A48G U49C | < 1e-05 |  |  |  | 
U47G A64U | < 1e-05 |  |  |  | 
C50A U56C | < 1e-05 |  | < 1e-05 | < 1e-05 | 
A48U C58A | < 1e-05 | < 1e-05 |  | < 1e-05 | < 1e-05
G51A A64G | < 1e-05 | < 1e-05 |  | < 1e-05 | < 1e-05
A52G G59A G63C | < 1e-05 |  | < 1e-05 |  | 
A52U A53U | < 1e-05 | 8.03e-05 ± 1.2e-05 | 0.000148 ± 1.7e-05 | 2.65e-05 ± 1e-05 | 
U55C C67U C68A | < 1e-05 |  | < 1e-05 |  | 
A53G G66A | 0.000617 ± 0.00011 | 0.0128 ± 0.005 | 0.0293 ± 0.0075 | 0.00474 ± 0.0013 | 
A48G A52C | < 1e-05 |  |  | < 1e-05 | < 1e-05
A48G C61U G66C C70U | < 1e-05 |  |  |  | 
U49A G59A | < 1e-05 | < 1e-05 |  | < 1e-05 | < 1e-05
U49A G59C | < 1e-05 | < 1e-05 | < 1e-05 | < 1e-05 | 
U54A C61G A64G | < 1e-05 | < 1e-05 | < 1e-05 |  | 
G51A G59U | < 1e-05 |  |  |  | 
A53U G63U | < 1e-05 |  | < 1e-05 | < 1e-05 | < 1e-05
A53G U56A | 0.000437 ± 9e-05 | 0.00663 ± 0.0019 | 0.0137 ± 0.0026 | 0.00273 ± 0.00051 | 0.00116 ± 0.00021
A52C A64C C67G | < 1e-05 |  | < 1e-05 |  | 
G51A U69C | < 1e-05 |  | < 1e-05 |  | 
A48U U49G | < 1e-05 |  |  |  | 
U49C G62C | < 1e-05 | < 1e-05 |  | < 1e-05 | 
A48C G51U | < 1e-05 |  |  |  | 
